Reference: the supplement of paper PMC3334620
Whole data set: some 33,000 sequences, median “E-score (-0.5 to 0.5)” near -0.012, cut for the highest 2% near 0.27. The list shows a part of the results.

target: T1, Vhr1 (UniProt P40522); test: PBM E-score (8-mer binding enrichment) (E-score (-0.5 to 0.5)); higher = stronger / more preferred TF binding; most listed sequences are background and not binding sites; details: protein concentration: 200 nM; construct: GST-full length
T1 sequence: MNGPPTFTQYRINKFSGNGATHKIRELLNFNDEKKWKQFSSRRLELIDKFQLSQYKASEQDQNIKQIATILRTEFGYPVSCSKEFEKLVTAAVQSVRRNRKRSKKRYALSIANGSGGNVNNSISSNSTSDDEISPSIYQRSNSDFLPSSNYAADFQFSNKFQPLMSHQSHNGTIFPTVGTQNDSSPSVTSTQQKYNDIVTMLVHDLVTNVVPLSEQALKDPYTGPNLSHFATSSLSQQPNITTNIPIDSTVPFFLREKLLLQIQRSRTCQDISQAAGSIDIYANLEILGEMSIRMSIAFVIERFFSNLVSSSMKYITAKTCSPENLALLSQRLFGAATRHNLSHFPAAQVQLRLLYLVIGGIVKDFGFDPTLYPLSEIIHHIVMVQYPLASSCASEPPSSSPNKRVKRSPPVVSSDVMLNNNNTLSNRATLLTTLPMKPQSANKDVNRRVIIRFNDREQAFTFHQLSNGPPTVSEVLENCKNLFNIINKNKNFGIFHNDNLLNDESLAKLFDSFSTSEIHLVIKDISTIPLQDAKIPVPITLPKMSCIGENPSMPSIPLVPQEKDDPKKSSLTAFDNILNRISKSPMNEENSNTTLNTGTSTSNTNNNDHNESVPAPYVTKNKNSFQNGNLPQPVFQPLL
Method in brief: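 Universal all-10-mer Agilent arrays, double-stranded by primer extension on fresh or once-stripped slides, were probed with about 100-200 nM GST-tagged yeast transcription factors made by PURExpress. Fluorescent anti-GST detected bound protein, and masliner normalised the scans. E-scores from the Universal PBM Analysis Suite were given to each ungapped eight-base word pooled with its reverse complement.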

| Sequence | PBM E-score |
| --- | --- |
| AGGCTAAT | 0.00758 |
| CACGCTTA | -0.15 |
| CATGTACC | -0.019 |
| GCCTGCCA | -0.174 |
| AGTGTGCC | -0.143 |
| CGGGGGTA | -0.0254 |
| CCCGAAAA | -0.0155 |
| GCCGACAC | 0.0401 |
| GAGGATTA | -0.13 |
| GAACTTGC | -0.173 |
| CTTCGATA | -0.0278 |
| ACCCGGAG | 0.216 |
| GCAGCACA | 0.148 |
| GGCAGTAA | 0.125 |
| CATAAGAC | -0.0681 |
| ATGGGTAG | 0.113 |
| TGACCGAA | 0.045 |
| ACTGTAAA | -0.0312 |
| AAACCAAA | -0.0827 |
| CAGATCCA | -0.0204 |
| CAGGTGAA | -0.0384 |
| CCAGCGAA | -0.12 |
| CCGTACTC | 0.108 |
| GGTCACCA | -0.102 |
| CTATCGAG | 0.167 |

| Sequence | PBM E-score |
| --- | --- |
| CGTGGGGC | -0.212 |
| AAGCTAAT | -0.0952 |
| AGTTATCG | 0.148 |
| CTGTGTAC | 0.113 |
| ACCAACAT | 0.157 |
| GCCGCCTA | -0.144 |
| GTCAACAA | -0.00888 |
| AGCCAGCC | 0.111 |
| ACTGTCTG | 0.0301 |
| AAATAGTA | 0.0683 |
| CCAAAACC | -0.0417 |
| CGTCGAAA | -0.143 |
| GCTTCAAC | -0.206 |
| CCCTCCGG | -0.118 |
| GGCCGAAC | 0.0207 |
| GCATGTCA | 0.121 |
| CAACCGTG | 0.00918 |
| CCCACATC | -0.0619 |
| ACGAGTAC | 0.0901 |
| AGAGGAGG | -0.211 |
| ATACGCCA | 0.0396 |
| CACGCCCA | 0.178 |
| CGGCGGGA | -0.0278 |
| AAGGAATA | -0.0657 |
| CCAAAGAG | -0.0142 |

| Sequence | PBM E-score |
| --- | --- |
| TCGTATAA | 0.114 |
| AAATAACC | -0.0908 |
| AATTTTGG | -0.212 |
| GAGGTGAA | -0.0638 |
| GAGAGCAA | -0.0994 |
| AGCTTTAA | -0.201 |
| GAATCGTA | 0.201 |
| AGATTACA | 0.153 |
| GCTAAACC | -0.209 |
| CCTCAGCC | -0.0698 |
| GGTCAACC | 0.0175 |
| GAGCCGCC | 0.0604 |
| CTGTCCCA | -0.0909 |
| CTCGTCAA | 0.0355 |
| AGTTATAC | 0.0762 |
| ACCGAGAC | 0.0377 |
| ACTAAGAC | 0.0313 |
| GTTCGCGA | 0.0419 |
| CTGTAAAC | -0.116 |
| TAGAGGGA | -0.0999 |
| CGTATACC | -0.00821 |
| CTTCCCTC | 0.0173 |
| ACCTCCCT | 0.0523 |
| ACGCCACA | 0.0233 |
| CGGCATCC | -0.0935 |

| Sequence | PBM E-score |
| --- | --- |
| AAGCAGGT | -0.064 |
| ACCGGAGC | -0.062 |
| CGAATACG | 0.122 |
| CAACCTCG | -0.0372 |
| GCCTGACA | -0.198 |
| CTATCTAC | -0.0686 |
| TACCAACA | 0.145 |
| TCTGTGCA | 0.0513 |
| TGGAGAAA | -0.212 |
| CCAATCTA | 0.111 |
| AATCCCGC | 0.0617 |
| AGTAAGTC | 0.0628 |
| AGTCGTCA | 0.165 |
| GGCAAAAA | -0.058 |
| AAAACGCG | 0.0358 |
| ACATCTCT | 0.157 |
| AACATTTG | -0.224 |
| CTAGCTTC | 0.0748 |
| CGCCAGTA | 0.0114 |
| GATCGTAC | 0.062 |
| AAGGTCCG | -0.0694 |
| CAGTTTCC | 0.0137 |
| GATTCGCC | 0.105 |
| TGGCCAAA | -0.255 |
| ACCACCTC | -0.0353 |

| Sequence | PBM E-score |
| --- | --- |
| GGAGGGTA | 0.0984 |
| CCCTACAA | 0.0169 |
| CAAAAGGC | -0.0731 |
| TTAAACAA | -0.193 |
| CATCCGGG | -0.0984 |
| CATTTTCC | -0.255 |
| GGCACGCC | -0.218 |
| GTATACGA | 0.132 |
| AATGAACA | 0.0601 |
| CGGCCACA | -0.0182 |
| GCATGCTA | -0.138 |
| ACGACCCA | 0.224 |
| ATGTATAC | 0.165 |
| CATTGATC | 0.0435 |
| GAACTTTA | -0.295 |
| CGGGCCTA | 0.0265 |
| GACGAGCC | 0.151 |
| ACCCGGAT | 0.0629 |
| CGGACCAG | -0.0971 |
| ACACGGCG | 0.0799 |
| CAAAGCGC | -0.217 |
| ATGAATGG | 0.234 |
| CGCAATTC | -0.0548 |
| ACGCGTAA | -0.0808 |
| AGGCTCAA | -0.263 |

| Sequence | PBM E-score |
| --- | --- |
| AACCTCAT | -0.0289 |
| GCAACAGA | -0.122 |
| ATCCCGCC | 0.205 |
| ACCACAGG | 0.0559 |
| GGCTATAA | -0.0926 |
| AGATAGAT | -0.155 |
| ATCCTTAG | -0.116 |
| ATCTCACG | -0.12 |
| CAGCACCC | -0.143 |
| GCTGGCAC | -0.156 |
| ATTTGTCC | -0.0847 |
| ATCAAGAG | 0.166 |
| CTCACCAA | 0.265 |
| ACGTGCGA | -0.0503 |
| ATGGAATC | 0.28 |
| ATTGGACC | -0.12 |
| CTGATGCC | -0.162 |
| CTTTCTCC | -0.2 |
| CTAATCAC | 0.27 |
| ACTACATA | 0.133 |
| AACCGCAA | 0.175 |
| GTCTCTAA | -0.167 |
| CCAAAGCC | -0.193 |
| CCGTCTAG | -0.047 |
| ACACAGTC | 0.181 |

| Sequence | PBM E-score |
| --- | --- |
| CTCATGGC | 0.187 |
| TAGCTATA | -0.048 |
| GCCCTAAC | -0.0388 |
| AAGGACTG | -0.127 |
| GTTCCCGA | 0.00116 |
| TAAGGCTA | -0.257 |
| AAGAGATT | -0.158 |
| GCGACGAA | 0.0555 |
| ACGTAAAA | -0.26 |
| CCTTTAAA | -0.311 |
| AAGCAATG | -0.0104 |
| CCCTTGTC | -0.251 |
| GGAGATAA | -0.185 |
| ATAGTGCC | -0.0541 |
| CCGCACGC | 0.166 |
| ACCTTACA | -0.227 |
| ATCGGAAT | -0.0572 |
| CCTCTGGA | -0.189 |
| ACATAAGG | -0.0382 |
| GCCTGTCA | -0.0151 |
| AGGACGAT | 0.0428 |
| GGACGGTA | -0.276 |
